These results are taken from paper PMC3617184.

Results are given in words; binding and its absence hold for the method and conditions named. In cells and extracts the contact can be indirect. Some entries that bind do so weakly or less than the wild type. Tags and fused reporters may be left off the sequences shown.

The target in one assay is T1, Swi6 (S. cerevisiae) (UniProt P09959).
T1 sequence: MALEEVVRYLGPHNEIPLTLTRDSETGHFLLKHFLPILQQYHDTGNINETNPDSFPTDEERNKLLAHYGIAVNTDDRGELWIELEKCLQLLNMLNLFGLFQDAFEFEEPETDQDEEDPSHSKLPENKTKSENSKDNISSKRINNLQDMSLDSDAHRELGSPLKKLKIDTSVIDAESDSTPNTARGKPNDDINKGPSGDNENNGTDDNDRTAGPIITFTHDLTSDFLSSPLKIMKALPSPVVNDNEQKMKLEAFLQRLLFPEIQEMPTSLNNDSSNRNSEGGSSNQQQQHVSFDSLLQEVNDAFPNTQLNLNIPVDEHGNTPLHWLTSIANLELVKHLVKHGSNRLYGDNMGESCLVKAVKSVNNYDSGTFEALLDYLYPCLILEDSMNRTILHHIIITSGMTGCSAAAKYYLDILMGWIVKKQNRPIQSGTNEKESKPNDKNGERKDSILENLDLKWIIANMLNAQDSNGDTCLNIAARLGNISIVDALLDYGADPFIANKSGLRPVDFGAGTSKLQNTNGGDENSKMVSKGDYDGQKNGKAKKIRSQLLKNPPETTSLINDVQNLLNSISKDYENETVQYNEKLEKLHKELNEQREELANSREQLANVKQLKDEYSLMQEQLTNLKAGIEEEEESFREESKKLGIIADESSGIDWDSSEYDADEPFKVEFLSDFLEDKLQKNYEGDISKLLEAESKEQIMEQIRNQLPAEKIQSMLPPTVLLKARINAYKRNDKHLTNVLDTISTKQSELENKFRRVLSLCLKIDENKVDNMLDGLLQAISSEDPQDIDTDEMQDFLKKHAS
As to the kind of experiment: co-IP; lysate of an asynchronous Nrm1-myc culture; IP with anti-Mbp1, anti-Swi4 or anti-Swi6 polyclonal sera, protein A Sepharose, 2 hours at 4°C; lysis buffer 50 mM Tris-HCl pH 7.5, 1% Triton X-100, 250 mM NaCl; blots with anti-myc, anti-Mbp1, anti-Swi6, anti-Swi4.

Assay [1] has as its target T2, myc-tagged Whi5 (S. cerevisiae) (UniProt Q12416).
T2 sequence: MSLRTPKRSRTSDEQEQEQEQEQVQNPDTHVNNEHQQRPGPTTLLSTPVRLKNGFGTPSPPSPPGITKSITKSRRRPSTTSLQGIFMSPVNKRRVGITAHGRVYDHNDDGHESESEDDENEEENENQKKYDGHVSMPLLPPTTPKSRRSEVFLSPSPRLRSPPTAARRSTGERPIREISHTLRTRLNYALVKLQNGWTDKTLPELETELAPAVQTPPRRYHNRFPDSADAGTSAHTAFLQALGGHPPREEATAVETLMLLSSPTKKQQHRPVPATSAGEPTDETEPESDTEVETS
As to the kind of experiment: co-IP; lysate of an asynchronous Whi5-myc culture; IP with anti-myc antibody; blots with anti-myc, anti-Swi6, anti-Swi4, anti-Mbp1.

The target of another assay is T3, Swi4 (S. cerevisiae) (UniProt P25302).
T3 sequence: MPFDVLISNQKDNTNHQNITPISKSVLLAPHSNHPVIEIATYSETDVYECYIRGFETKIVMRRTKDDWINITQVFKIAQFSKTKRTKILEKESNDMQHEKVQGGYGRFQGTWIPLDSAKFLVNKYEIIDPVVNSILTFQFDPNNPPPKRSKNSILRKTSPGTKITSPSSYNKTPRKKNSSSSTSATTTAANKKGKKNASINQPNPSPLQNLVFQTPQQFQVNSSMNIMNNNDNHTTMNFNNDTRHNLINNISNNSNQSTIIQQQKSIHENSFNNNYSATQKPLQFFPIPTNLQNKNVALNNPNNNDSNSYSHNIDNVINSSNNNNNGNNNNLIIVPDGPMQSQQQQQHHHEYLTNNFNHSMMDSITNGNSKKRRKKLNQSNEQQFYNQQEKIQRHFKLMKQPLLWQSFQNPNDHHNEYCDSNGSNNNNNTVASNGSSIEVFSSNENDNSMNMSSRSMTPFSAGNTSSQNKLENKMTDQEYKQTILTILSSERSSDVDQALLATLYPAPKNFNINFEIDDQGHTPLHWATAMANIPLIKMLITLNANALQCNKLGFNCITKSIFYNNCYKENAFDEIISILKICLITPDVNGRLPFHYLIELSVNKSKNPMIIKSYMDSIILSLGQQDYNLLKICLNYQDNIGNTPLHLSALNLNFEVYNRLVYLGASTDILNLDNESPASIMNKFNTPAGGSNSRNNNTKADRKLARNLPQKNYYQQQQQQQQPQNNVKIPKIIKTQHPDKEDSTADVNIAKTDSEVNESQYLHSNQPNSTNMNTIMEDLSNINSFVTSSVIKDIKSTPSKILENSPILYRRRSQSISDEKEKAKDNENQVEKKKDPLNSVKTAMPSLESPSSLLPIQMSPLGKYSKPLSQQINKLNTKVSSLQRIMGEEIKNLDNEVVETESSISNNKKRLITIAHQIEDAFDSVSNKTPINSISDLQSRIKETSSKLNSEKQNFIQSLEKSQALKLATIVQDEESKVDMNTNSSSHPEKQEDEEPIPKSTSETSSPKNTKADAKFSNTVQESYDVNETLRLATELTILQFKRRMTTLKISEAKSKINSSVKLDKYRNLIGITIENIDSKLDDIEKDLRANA
Kind of assay: co-IP; lysate of an asynchronous Nrm1-myc culture; IP with anti-Mbp1, anti-Swi4 or anti-Swi6 polyclonal sera, protein A Sepharose, 2 hours at 4°C; lysis buffer 50 mM Tris-HCl pH 7.5, 1% Triton X-100, 250 mM NaCl; blots with anti-myc, anti-Mbp1, anti-Swi6, anti-Swi4.

For a further assay, the target named is T4, Mbp1 (S. cerevisiae) (UniProt P39678).
T4 sequence: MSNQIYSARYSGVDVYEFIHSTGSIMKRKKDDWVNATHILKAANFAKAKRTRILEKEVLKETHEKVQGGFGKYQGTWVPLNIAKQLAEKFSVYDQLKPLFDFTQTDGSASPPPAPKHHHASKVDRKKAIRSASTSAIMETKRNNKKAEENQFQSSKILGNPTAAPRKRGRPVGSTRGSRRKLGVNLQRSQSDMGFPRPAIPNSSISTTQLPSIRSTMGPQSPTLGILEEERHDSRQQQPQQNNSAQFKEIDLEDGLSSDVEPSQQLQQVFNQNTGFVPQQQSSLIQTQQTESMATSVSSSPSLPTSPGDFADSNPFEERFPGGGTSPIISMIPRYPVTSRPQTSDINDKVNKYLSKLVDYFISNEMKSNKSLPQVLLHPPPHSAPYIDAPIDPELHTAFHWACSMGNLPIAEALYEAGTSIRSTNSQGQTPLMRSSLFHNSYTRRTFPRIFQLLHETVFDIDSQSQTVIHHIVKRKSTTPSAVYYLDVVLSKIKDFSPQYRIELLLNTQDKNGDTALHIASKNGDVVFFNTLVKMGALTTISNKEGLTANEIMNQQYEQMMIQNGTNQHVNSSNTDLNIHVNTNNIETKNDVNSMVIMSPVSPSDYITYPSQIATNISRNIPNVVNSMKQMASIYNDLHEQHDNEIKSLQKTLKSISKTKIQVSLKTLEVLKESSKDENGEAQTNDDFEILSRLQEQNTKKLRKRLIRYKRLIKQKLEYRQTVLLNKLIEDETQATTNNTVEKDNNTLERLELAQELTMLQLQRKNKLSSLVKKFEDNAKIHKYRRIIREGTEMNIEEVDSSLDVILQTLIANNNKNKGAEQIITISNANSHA
The description is as above.

B1: Swi4 (protein, UniProt P25302 1-1093)
chain: MPFDVLISNQKDNTNHQNITPISKSVLLAPHSNHPVIEIATYSETDVYECYIRGFETKIVMRRTKDDWINITQVFKIAQFSKTKRTKILEKESNDMQHEKVQGGYGRFQGTWIPLDSAKFLVNKYEIIDPVVNSILTFQFDPNNPPPKRSKNSILRKTSPGTKITSPSSYNKTPRKKNSSSSTSATTTAANKKGKKNASINQPNPSPLQNLVFQTPQQFQVNSSMNIMNNNDNHTTMNFNNDTRHNLINNISNNSNQSTIIQQQKSIHENSFNNNYSATQKPLQFFPIPTNLQNKNVALNNPNNNDSNSYSHNIDNVINSSNNNNNGNNNNLIIVPDGPMQSQQQQQHHHEYLTNNFNHSMMDSITNGNSKKRRKKLNQSNEQQFYNQQEKIQRHFKLMKQPLLWQSFQNPNDHHNEYCDSNGSNNNNNTVASNGSSIEVFSSNENDNSMNMSSRSMTPFSAGNTSSQNKLENKMTDQEYKQTILTILSSERSSDVDQALLATLYPAPKNFNINFEIDDQGHTPLHWATAMANIPLIKMLITLNANALQCNKLGFNCITKSIFYNNCYKENAFDEIISILKICLITPDVNGRLPFHYLIELSVNKSKNPMIIKSYMDSIILSLGQQDYNLLKICLNYQDNIGNTPLHLSALNLNFEVYNRLVYLGASTDILNLDNESPASIMNKFNTPAGGSNSRNNNTKADRKLARNLPQKNYYQQQQQQQQPQNNVKIPKIIKTQHPDKEDSTADVNIAKTDSEVNESQYLHSNQPNSTNMNTIMEDLSNINSFVTSSVIKDIKSTPSKILENSPILYRRRSQSISDEKEKAKDNENQVEKKKDPLNSVKTAMPSLESPSSLLPIQMSPLGKYSKPLSQQINKLNTKVSSLQRIMGEEIKNLDNEVVETESSISNNKKRLITIAHQIEDAFDSVSNKTPINSISDLQSRIKETSSKLNSEKQNFIQSLEKSQALKLATIVQDEESKVDMNTNSSSHPEKQEDEEPIPKSTSETSSPKNTKADAKFSNTVQESYDVNETLRLATELTILQFKRRMTTLKISEAKSKINSSVKLDKYRNLIGITIENIDSKLDDIEKDLRANA
Regarding B1, the binding entry (with Swi6 (S. cerevisiae); in assay [1]) was “binds” throughout.

B2: myc-tagged Nrm1 (protein, UniProt P53718 1-249)
chain: MSIMKQRLPLGEFSSSKINKLAIANIADASEPRNHGENNVGTVCLPSIKSLMVSPEVYENTKSLPVPLMRSSGGGMACASKSSCQDGISTKTTSRDYSELSKKLQIRLQFAYYKYKTKQTDKNFTDLKSKHSITRPSKVATHSKSEPLTRRRKLVLSQGHYKTPARSKIKTPSSICSHDNTSSFTSFRGVSESSSTTADMNVADTTTPIRNNINTKHSNSHNRTLYQRQETPTSIKAAKSLIHLFTSNQ
In the case of B2, the binding result with Swi4 (S. cerevisiae) is “no binding”; in the assay with Mbp1 (S. cerevisiae) it was “binds”; with Swi6 (S. cerevisiae) it was “binds”.

B3: Mbp1 (protein, UniProt P39678 1-833)
chain: MSNQIYSARYSGVDVYEFIHSTGSIMKRKKDDWVNATHILKAANFAKAKRTRILEKEVLKETHEKVQGGFGKYQGTWVPLNIAKQLAEKFSVYDQLKPLFDFTQTDGSASPPPAPKHHHASKVDRKKAIRSASTSAIMETKRNNKKAEENQFQSSKILGNPTAAPRKRGRPVGSTRGSRRKLGVNLQRSQSDMGFPRPAIPNSSISTTQLPSIRSTMGPQSPTLGILEEERHDSRQQQPQQNNSAQFKEIDLEDGLSSDVEPSQQLQQVFNQNTGFVPQQQSSLIQTQQTESMATSVSSSPSLPTSPGDFADSNPFEERFPGGGTSPIISMIPRYPVTSRPQTSDINDKVNKYLSKLVDYFISNEMKSNKSLPQVLLHPPPHSAPYIDAPIDPELHTAFHWACSMGNLPIAEALYEAGTSIRSTNSQGQTPLMRSSLFHNSYTRRTFPRIFQLLHETVFDIDSQSQTVIHHIVKRKSTTPSAVYYLDVVLSKIKDFSPQYRIELLLNTQDKNGDTALHIASKNGDVVFFNTLVKMGALTTISNKEGLTANEIMNQQYEQMMIQNGTNQHVNSSNTDLNIHVNTNNIETKNDVNSMVIMSPVSPSDYITYPSQIATNISRNIPNVVNSMKQMASIYNDLHEQHDNEIKSLQKTLKSISKTKIQVSLKTLEVLKESSKDENGEAQTNDDFEILSRLQEQNTKKLRKRLIRYKRLIKQKLEYRQTVLLNKLIEDETQATTNNTVEKDNNTLERLELAQELTMLQLQRKNKLSSLVKKFEDNAKIHKYRRIIREGTEMNIEEVDSSLDVILQTLIANNNKNKGAEQIITISNANSHA
As to B3, the binding result with Swi6 (S. cerevisiae) was “binds”; in assay [1], “no binding”.
